Experimental data: the antibiotic and cytotoxicity screens of Wong et al. (2023)
Some of the results follow.

Tests used:
[1] = tested on: HSkMC (human skeletal muscle cells); experiment: cytotoxicity call (relative viability < 0.9); conditions: 10 µM
[2] = tested on: HepG2; experiment: cytotoxicity call (relative viability < 0.9); conditions: 10 µM
[3] = tested on: S. aureus RN4220; experiment: growth inhibition call (relative growth <= 0.2); conditions: 50 µM

SMILES | cytotoxicity call [1] | cytotoxicity call [2] | growth inhibition call [3]
O=C(C[C@H]1CC[C@H]2NC[C@H](O)COC[C@@H]2O1)NCCN1CCCCC1 | inactive | inactive | inactive
O=C(Nc1nnn[nH]1)c1cncc(N2CCCC2)n1 | inactive | inactive | inactive
C[C@@H]1CN([C@H](C)CO)C(=O)Cc2cc(N(C)C)ccc2O[C@H]1CN(C)S(=O)(=O)c1ccc(Cl)cc1 | inactive | inactive | inactive
C[C@@H](NS(=O)(=O)c1cccc(F)c1)C(=O)O | inactive | inactive | inactive
O=C(C[C@@H]1C=C[C@@H](NC(=O)CN2CCOCC2)[C@@H](CO)O1)NCc1cccc(F)c1 | inactive | inactive | inactive
Cc1noc(C)c1S(=O)(=O)Nc1ccc2c(c1)CC(=O)N([C@H](C)CO)C[C@H](C)[C@@H](CN(C)C(=O)Nc1ccc3c(c1)OCO3)O2 | inactive | inactive | inactive
CCS(=O)(=O)N1[C@@H](CO)[C@@H](c2ccccc2)C12CN(C(=O)CN(C)C)C2 | inactive | inactive | inactive
C[C@@H]1CN([C@@H](C)CO)C(=O)c2cc(NS(=O)(=O)c3cn(C)cn3)ccc2O[C@H]1CN(C)Cc1ccc2c(c1)OCO2 | inactive | inactive | inactive
COc1ccc(S(=O)(=O)N(C)C[C@@H]2Oc3ccc(NS(=O)(=O)c4cn(C)cn4)cc3C(=O)N([C@H](C)CO)C[C@@H]2C)cc1 | inactive | inactive | inactive
CCN(CC)CCCCNc1ncc2cc(-c3c(Cl)cccc3Cl)c(NC(=O)NC(C)(C)C)nc2n1 | inactive | active | inactive
C[C@@H]1CCCCO[C@H](CN(C)C(=O)Nc2ccc(C(F)(F)F)cc2)[C@H](C)CN([C@@H](C)CO)C(=O)c2cc(NS(=O)(=O)c3ccc(Cl)cc3)ccc2O1 | inactive | inactive | inactive
CC(C)NC(=O)Nc1ccc2c(c1)CC(=O)N([C@H](C)CO)C[C@@H](C)[C@@H](CN(C)S(=O)(=O)c1cccs1)O2 | inactive | inactive | inactive
COCC#Cc1cnc2c(c1)C(=O)N([C@@H](C)CO)C[C@H](C)[C@H](CN(C)C(=O)Nc1cc(F)ccc1F)O2 | inactive | inactive | inactive
Cc1oc(=O)oc1CN1CCN(c2cc3c(cc2F)c(=O)c(C(=O)O)c2n3C(C)S2)CC1 (stereo not given) | inactive | inactive | active
COC1C=COC2(C)Oc3c(C)c(O)c4c(O)c(c(C=NN5CCN(C)CC5)c(O)c4c3C2=O)NC(=O)C(C)=CC=CC(C)C(O)C(C)C(O)C(C)C(OC(C)=O)C1C (stereo not given) | inactive | inactive | inactive
COc1ccc(CN(C)C[C@@H]2OCCCC[C@@H](C)Oc3ccc(NC(=O)c4ccccc4)cc3C(=O)N([C@@H](C)CO)C[C@@H]2C)cc1 | inactive | inactive | inactive
C[C@@H]1CN([C@@H](C)CO)S(=O)(=O)c2ccc(C#Cc3cccnc3)cc2O[C@H]1CN(C)CC1CCOCC1 | inactive | inactive | inactive
O=C(C[C@@H]1C[C@@H]2c3cc(NS(=O)(=O)c4ccc(F)cc4)ccc3O[C@@H]2[C@H](CO)O1)NC1CCCCC1 | inactive | inactive | inactive
COc1ccccc1-c1cnc2c(c1)C(=O)N([C@@H](C)CO)C[C@@H](C)[C@H](CN(C)C(=O)c1ccncc1)O2 | inactive | inactive | inactive
CCN1[C@H](C(=O)NCCc2cn(C)cn2)[C@@H](CO)[C@@H]2Cn3c(ccc(-c4ccncc4)c3=O)[C@@H]21 | inactive | inactive | inactive
C[C@@H]1CN([C@@H](C)CO)C(=O)c2cccc(NC(=O)c3ccc(-c4nccs4)cc3)c2O[C@@H]1CN(C)Cc1ccc2c(c1)OCO2 | inactive | inactive | inactive
CN(C)CC(=O)N1[C@@H]2c3ccc(-c4ccccc4)c(=O)n3C[C@H]1[C@H](CO)[C@H]2C(=O)N1CCOCC1 | inactive | inactive | inactive
C[C@@H]1CCCCO[C@@H](CN(C)C(=O)c2ccccc2)[C@H](C)CN([C@@H](C)CO)C(=O)c2cc(NC(=O)Cc3ccccc3)ccc2O1 | inactive | inactive | inactive
C[C@@H]1CN([C@H](C)CO)C(=O)c2cc(NC(=O)CCC(F)(F)F)ccc2O[C@@H](C)CCCCO[C@@H]1CN(C)Cc1ccc(Cl)c(Cl)c1 | active | active | inactive
C[C@@H]1CN([C@@H](C)CO)C(=O)c2cccc(NC(=O)c3ccc(-c4nccs4)cc3)c2O[C@H]1CN(C)Cc1ccc(C(F)(F)F)cc1 | inactive | inactive | inactive
